# Measurements reported in patent publication US20090042870A1, “Antimicrobial Composition” (priority 2005, published 2009).
# System: Escherichia coli K12 10083 (NCIMB)
# Test: Hygienic handrub efficacy on artificially contaminated hands of volunteers, EN 1500:1997
# Assay type: in vivo
# Details: mean of 15 subjects; rub-in 3 ml/30 s, repeat once
compound,measurement,value
"CC(C)O [propan-2-ol 60% (v/v), Propan-2-ol]","log y (log10 post values), mean",3.56 log10
same,"log z (log10 reduction factor), mean",3.519 log10
